Assay results: PubChem BioAssay AID1030 (National Center for Advancing Translational Sciences (NCATS), 2008)
About 16,000 (7.3%) of roughly 220,000 compounds were called active. Inconclusive means that the source gave no clear call. Such entries were picked first, then a sample of the others. The call rests on the fitted dose curve; in most records, active means well fitted inhibition curve with a large enough effect (not every such curve was filed as active); inconclusive means small, poorly fitted or top-dose-only effect, or another doubt; inactive means no such curve, though single readings can be large or run the other way. Potencies of inconclusive entries are left out as doubtful fits.

The compounds below were run against Aldehyde dehydrogenase 1A1 (Homo sapiens) (UniProt P00352) (assay: qHTS Assay for Inhibitors of Aldehyde Dehydrogenase 1 (ALDH1A1)). Details: Purified ALDH1A1, NADH fluorescence, propionaldehyde substrate; series mostly up to 75.3 µM; activity, negative = inhibition: at the top concentration.
Potency means the concentration at half of the fitted maximal effect; tags describe the fitted curve by direction and shape.
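Wherever activity, negative = inhibition is given: plate controls were no enzyme wells and a reference inhibitor.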

UniProt P00352, sequence (P00352 whole entry, looked up): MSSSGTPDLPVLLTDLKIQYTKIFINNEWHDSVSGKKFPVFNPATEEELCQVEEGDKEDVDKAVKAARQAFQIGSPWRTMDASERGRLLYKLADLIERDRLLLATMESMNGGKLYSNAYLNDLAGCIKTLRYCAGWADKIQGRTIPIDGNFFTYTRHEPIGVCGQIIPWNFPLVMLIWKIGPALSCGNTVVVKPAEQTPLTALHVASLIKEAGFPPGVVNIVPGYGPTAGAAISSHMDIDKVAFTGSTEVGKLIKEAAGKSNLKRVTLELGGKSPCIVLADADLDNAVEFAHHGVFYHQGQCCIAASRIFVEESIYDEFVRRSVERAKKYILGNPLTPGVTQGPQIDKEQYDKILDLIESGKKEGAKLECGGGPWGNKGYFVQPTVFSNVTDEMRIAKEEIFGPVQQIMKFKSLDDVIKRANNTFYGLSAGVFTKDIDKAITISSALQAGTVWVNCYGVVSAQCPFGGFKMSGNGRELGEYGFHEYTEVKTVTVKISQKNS

SMILES	Potency	activity, negative = inhibition
Cc1ccc(C(=O)CCNc2ccc(Cl)cc2)o1	active: 3.98 µM	–
CC(Cc1ccccc1)NC(=O)CSc1nc2nc3c(cc2c(=O)n1-c1ccccc1)COC(C)(C)C3 (centres undefined)	active: 1.58 µM	–
COc1cc(S(=O)(=O)N2CCCCCC2)ccc1-n1cnnn1	inconclusive [inhibitor, single point]	–
Cc1ccc(CNC(=O)C(=O)NCC2OCCN2C(=O)c2cccs2)cc1 (centres undefined)	–	inactive: -0.0139%
CCOC(=O)c1sc2nc(CSc3ccccc3Cl)[nH]c(=O)c2c1C	inconclusive [inhibitor, single point]	–
CCCC(=O)N(Cc1cc2cc(C)ccc2[nH]c1=O)c1ccccc1OC	inconclusive [inhibitor, single point]	–
O=C(O)c1cccc(N2C(=O)C3CC=C(Cl)CC3C2=O)c1 (centres undefined)	–	inactive: 12.7%
O=C(Nc1sccc1C(=O)NCc1ccco1)c1cccnc1	inconclusive [inhibitor, single point]	–
Cn1cccc1C(=O)N1CCC[C@@]2(CCN(c3ccccc3)C2)C1	inconclusive [inhibitor, single point]	–
CCOc1ccc(NS(=O)(=O)c2cc(NC(=O)c3cccc(C)c3)ccc2Cl)cc1	–	inactive: -1.14%
O=C(Cc1cccc2ccccc12)Nc1ccc2oc(-c3ccccc3)nc2c1	inconclusive [inhibitor, partial curve]	–
OC(c1ccccc1)c1nccc2ccccc12 (centres undefined)	–	inactive: 0.167%
CCOC(=O)C1=NN(c2ccc(Cl)cc2)C(c2ccccc2)CC1=O (centres undefined)	inconclusive [inhibitor, single point]	–
COc1ccc(C(NC(=O)c2cccc(F)c2)c2ccccc2)cc1 (centres undefined)	inconclusive [inhibitor, partial curve]	–
O=C(COc1ccc2ccc(=O)oc2c1)N1CCN(c2ccccc2)CC1	inconclusive [inhibitor, partial curve]	–
CCC(OC(C)=O)c1cc2c(cc1[N+](=O)[O-])OCCO2 (centres undefined)	inconclusive [inhibitor, partial curve]	–
Cn1cccc1/C=N/NC(=O)c1ccc(OC(F)(F)C(F)F)cc1	inconclusive [inhibitor, single point]	–
Cc1ccc(S(=O)(=O)CCSc2ccc(C(F)(F)F)cn2)cc1	inconclusive [inhibitor, partial curve]	–
Cc1c(NC(=O)C(C)OC(=O)c2c3c(nc4ccccc24)CCC3)c(=O)n(-c2ccccc2)n1C (centres undefined)	–	inactive: -4.29%
COc1ccc(OCc2cc(C(=O)O)c(C)o2)cc1	–	inactive: 9.99%
COC(=O)CNc1nc(Cl)nc(Nc2ccc(Cl)cc2)n1	–	inactive: 25.4%
CCSC1=C(C#N)C2(CCCCC2)C(C#N)=C(N)N1	active: 10 µM	–
COCCCNc1nc2ccccc2[nH]c1=O	inconclusive [inhibitor, single point]	–
Cc1ccc(N2CCN(/N=C/c3ccccc3)CC2)cc1	–	inactive: 6.24%
O=C(CCS(=O)(=O)c1ccc(Br)cc1)Nc1ccc2c(c1)OCO2	inconclusive [inhibitor, single point]	–

SMILES	Potency	activity, negative = inhibition
CCOCCOc1cccc(C(=O)NC(c2ccccc2)C(C)C)c1 (centres undefined)	inconclusive [inhibitor, partial curve]	–
CC(C)CSc1nc2c(c(=O)[nH]c(=O)n2C)n1CC(O)COc1cccc2ccccc12 (centres undefined)	active: 17.8 µM	–
C=CCOc1ccc2c(OC)c3ccoc3nc2c1OC	inconclusive [inhibitor, partial curve]	–
O=C(O)c1ccccc1C(=O)NC1CCCCNC1=O (centres undefined)	inconclusive [inhibitor, single point]	–
CCn1c(SCC(=O)Nc2cc(C)on2)nnc1-c1ccco1	inconclusive [inhibitor, single point]	–
CCC(=O)Nc1nnc(-c2ccncc2)s1	inconclusive [inhibitor, single point]	–
O=c1c2ccccc2nc2n1CCN2	inconclusive [inhibitor, single point]	–
Cc1cccc(CN2C(=O)N/C(=C/c3cc(C)n(-c4cc(C)ccn4)c3C)C2=O)c1	inconclusive [inhibitor, partial curve]	–
CCCc1cc(=O)c2c(O)cccc2o1	–	inactive: -11%
COc1ccc(-n2c(COc3ccc4ccccc4c3)nnc2SCC(=O)NCc2ccco2)cc1	inconclusive [inhibitor, partial curve]	–
COC(=O)c1cc(C(=O)OC)n(Cc2ccc(C)cc2)c1C	–	inactive: -4.37%
COc1cccc(CNC(=O)C2CCCN(c3nn4c(=O)cc(C)nc4s3)C2)c1OC (centres undefined)	inconclusive [inhibitor, single point]	–
O=C1OCCN1C(=O)[C@H]1[C@H](c2ccc(F)cc2)C(c2ccccc2)=NN1c1ccc(Br)cc1	inconclusive [inhibitor, partial curve]	–
Cc1cccc(Oc2sc(C(=O)c3ccccc3)c(N)c2C#N)c1C	inconclusive [inhibitor, single point]	–
O=C(Nc1ccc2c(c1)OCCO2)c1cccs1	inconclusive [inhibitor, partial curve]	–
COCC(=O)c1[nH]c2ccccc2c1C	active: 7.94 µM	–
Clc1ccc(OCCCCSc2ncccn2)cc1	–	inactive: -6.99%
CC(C)CNC(=S)NC(=O)c1ccc(Cl)cc1	inconclusive [inhibitor, single point]	–
Cc1nc2ccc(NC3=NCCCCC3)cc2s1	inconclusive [inhibitor, single point]	–
COc1ccc(C(=O)N=c2sc3ccccc3n2C)cc1	inconclusive [inhibitor, partial curve]	–
O=C(CSc1nnc(-c2cccnc2)n1Cc1ccco1)N1c2ccccc2Sc2ccccc21	inconclusive [inhibitor, single point]	–
COc1cc(C2C(S(=O)(=O)c3ccccc3)CON2C)ccc1OCc1ccc(F)cc1 (centres undefined)	–	inactive: 2.3%
COc1ccc(C(C)(C)C)cc1NC(=O)COC(=O)c1ccc([N+](=O)[O-])o1	inconclusive [inhibitor, partial curve]	–
Cc1ccccc1NC(=O)c1cnc2ccccn2c1=O	inconclusive [inhibitor, partial curve]	–
COc1cc(OC)cc(C(=O)N2CCN(Cc3ccccc3[N+](=O)[O-])CC2)c1	active: 1.41 µM	–

SMILES	Potency	activity, negative = inhibition
Cc1cc(Cl)nc(NC(=O)CSc2ccc(Cl)cc2)n1	–	inactive: -4.65% [at 13.5 µM]
CC(C)c1ccc(NC(=O)Cc2cn(C)c3ccccc23)cc1	inconclusive [inhibitor, single point]	–
CCS(=O)(=O)Nc1ccc(-c2nnc(SCC(=O)c3cccc(OC)c3)o2)cc1	active: 3.16 µM	–
CCc1ccc(/C=C2\CN(CC)Cc3c2nc2ccccc2c3C(=O)O)cc1	inconclusive [inhibitor, single point]	–
O=C(O)CNC(=O)c1ccc(CO)o1	inconclusive [inhibitor, single point]	–
COc1ccc(S(=O)(=O)N2CC3CCCN3c3cc(C(F)(F)F)ccc32)cc1 (centres undefined)	inconclusive [inhibitor, single point]	–
CC(=O)c1ccsc1-c1c(C)cc2oc(=O)cc(-c3ccccc3)c2c1C	inconclusive [inhibitor, single point]	–
Cc1c(N=C=O)cccc1N=C=O	–	inactive: 7.23%
Cc1ccc(-c2cc(C(=O)N3CCN(c4ncccn4)CC3)c3cc(Br)ccc3n2)o1	inconclusive [inhibitor, partial curve]	–
O=C(COC(=O)c1ccc(F)cc1)Nc1ccc(Cl)cn1	–	inactive: 1.01%
Cc1ccc(-c2nc3ccccc3c(=O)n2NC(=O)COc2ccccc2)cc1	inconclusive [inhibitor, single point]	–
CCOC(=O)c1c(C)n(C)c2ccc(O)c(CN3CCN(C)CC3)c12	active: 17.8 µM	–
COc1ccc(-n2nc(C(=O)NCC(=O)NCCCN3CCCCCC3)c3ccccc3c2=O)cc1Cl	inconclusive [inhibitor, partial curve]	–
COC(=O)C1CSC(c2ccc(Cl)cc2)N1C(=O)c1ccccc1 (centres undefined)	inconclusive [inhibitor, single point]	–
CCOC(=O)c1c(/N=C/N(C)C)sc(/C=N/Nc2ccccc2)c1-c1ccccc1	active: 25.1 µM	–
Cc1c(N(C(=O)c2ccccn2)C2(C(=O)NC3CCCCC3)CCCCC2)c(=O)n(-c2ccccc2)n1C	–	inactive: 0.346%
CCCC(c1nnnn1CC(=O)OCC)N(Cc1cc2ccc(C)cc2[nH]c1=O)C1CCCC1 (centres undefined)	inconclusive [inhibitor, single point]	–
O=c1cc(O)c(-c2ccccc2Cl)c(Cl)[nH]1	–	inactive: 8.6%
Cc1ccc(-c2nn3c(C)nnc3s2)cc1NC(=O)c1cccs1	inconclusive [inhibitor, single point]	–
CN1CCN(c2ccc(S(=O)(=O)N3CCCCC3)cc2NC(=O)c2cccc([N+](=O)[O-])c2)CC1	–	inactive: -6.72%
COc1ccc(/C=C2\SC(=S)N(N3C(=O)CCC3=O)C2=O)cc1O	inconclusive [inhibitor, partial curve]	–
CCOC(=O)Nc1sc2c(c1C#N)CCCC2	inconclusive [inhibitor, single point]	–
COc1cc(=O)n2c(-c3ccccc3)csc2n1	–	inactive: 1.08%
CCOC(=O)c1cc(-c2cc(OC)c(OC)c(OC)c2)nc2c1c(=O)[nH]c(=O)n2Cc1ccccc1	inconclusive [inhibitor, single point]	–
